PubChem BioAssay AID1159614 (National Center for Advancing Translational Sciences (NCATS), 2016)
The whole screen tested about 45,000 compounds, of which about 65 (0.1%) were called active. The call rests on the fitted dose curve; in most records, active means well fitted activation curve with a large enough effect; inconclusive means small, poorly fitted or top-dose-only effect; inactive means no such curve, though single readings can be large or run the other way. Some of the results follow.

Target: Galactocerebrosidase (Homo sapiens) (UniProt P54803)
Experiment: A Novel Cell-Based Assay to Identify Small Molecules for B -Galactocerebrosidase; further: 0% is about no effect; nearly all actives have a fitted effect of over 65% in size
Conditions: 145M-Twi-hGALC-G270D cells (Twitcher mouse brain line with human GALC G270D), HMU-beta-Gal fluorescence, 48 h; series mostly up to 57.5 µM; activation: at the top concentration
Summary of the method: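 Mutant human GALC (G270D), stably expressed in a Twitcher mouse brain cell line lacking endogenous GALC, is measured in live-treated cells via 6-hexadecanoylamino-4-methylumbelliferyl-β-galactoside hydrolysis (0.1 mM final, pH 5.2) with fluorescent detection.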

Chain of UniProt P54803 (P54803 whole entry, looked up): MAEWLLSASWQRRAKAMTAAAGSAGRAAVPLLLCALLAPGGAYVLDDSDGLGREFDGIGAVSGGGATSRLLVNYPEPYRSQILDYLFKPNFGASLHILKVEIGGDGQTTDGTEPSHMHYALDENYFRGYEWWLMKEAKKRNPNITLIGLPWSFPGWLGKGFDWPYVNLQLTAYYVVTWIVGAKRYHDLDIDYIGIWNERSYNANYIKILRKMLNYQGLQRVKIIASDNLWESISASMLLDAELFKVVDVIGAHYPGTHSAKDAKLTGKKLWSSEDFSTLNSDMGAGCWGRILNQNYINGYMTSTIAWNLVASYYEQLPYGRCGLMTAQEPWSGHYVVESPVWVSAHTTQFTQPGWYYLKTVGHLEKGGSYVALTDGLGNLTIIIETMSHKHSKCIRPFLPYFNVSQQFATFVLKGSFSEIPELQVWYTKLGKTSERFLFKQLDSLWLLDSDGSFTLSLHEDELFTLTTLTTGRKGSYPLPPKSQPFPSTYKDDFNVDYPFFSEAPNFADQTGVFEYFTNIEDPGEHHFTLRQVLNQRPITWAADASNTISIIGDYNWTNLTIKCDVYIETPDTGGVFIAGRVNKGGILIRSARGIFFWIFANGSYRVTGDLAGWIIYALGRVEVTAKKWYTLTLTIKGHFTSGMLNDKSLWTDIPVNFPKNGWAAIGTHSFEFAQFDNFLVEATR

activation, inactive:
Cc1ccc(-n2nnc3c(sc4nc(C)c(C)cc43)c2=O)cc1Cl -16%, Cc1ccc(C)c(NC(=O)C2CCCN(S(=O)(=O)c3c(C)noc3/C=C/N(C)C)C2)c1 (configuration not stated) -19.3%, COc1ccc(CSc2nc3ncccc3[nH]2)cc1 7.17%, CCOc1ccc(N2CC(c3nc(-c4cc(OC)c(OC)c(OC)c4)no3)CC2=O)cc1 (configuration not stated) -0.268%, CCOc1ccc(N(C)S(=O)(=O)c2ccc3c(c2)C(C)(C)C(=O)N3C)cc1 -8.37%, Cn1c(=O)oc2cc(S(=O)(=O)CCC(=O)NCc3ccccc3)ccc21 -10.8%, CCN(c1ccccc1)S(=O)(=O)c1nnc(NC(=O)COc2ccc(OC)cc2)s1 4.08%, CC(=O)OCC#CCSc1nnc(-c2cccc(Br)c2)o1 -16.4%, CCOC(=O)c1c(C)oc2nc(C)nc(NCC3CCN(Cc4ccc(Cl)cc4)CC3)c12 -14.3%, COc1ccc(-c2nc3n(n2)C(c2ccc(OC)cc2)C(C(=O)Nc2cccnc2)=C(C)N3)cc1 (configuration not stated) -10.4%, CCOC(=O)c1[nH]c(C)c(CCC(=O)N2CCN(c3ccccc3)CC2)c1C -11.6%, COCCNC(=O)C1CCN(S(=O)(=O)c2ccc3c(c2)CCCN3C(C)=O)CC1 -16.4%, COc1cccc(N2CC(NC(=O)c3ccc(S(=O)(=O)N4CCCC4)cc3)CC2=O)c1 (configuration not stated) -16.2%, O=C(NC1CCCC1)c1c[nH]c2ccc(S(=O)(=O)Nc3cccc(C(F)(F)F)c3)cc2c1=O -2.53%, O=C(Cc1ccccc1)Nc1sc2c(c1C(=O)Nc1ccccc1Cl)CCC2 -2.29%, O=c1[nH]c(=O)n([C@H]2O[C@H](CO)[C@@H](O)[C@@H]2O)cc1/C=C\Br -21.2%, COc1ccc(-c2cc(NCc3ccc(F)cc3)n3cnnc3n2)cc1 -1.78%, Cc1cc(OCC(=O)NCC2(N3CCN(C)CC3)CCCCC2)cc(C)c1Cl -7.5%, Cc1ccc(-n2nc3c(N4CCC(C(=O)N5CCCCC5)CC4)nnc(C)c3c2C)cc1 -3.47%, Cc1ccc(NC(=O)CCc2nnc3n(CC(C)C)c(=O)c4ccccc4n23)cc1C -6.19%, COc1ccc(CNC(=O)Cn2nc(C)c3nn(-c4ccc(Cl)cc4)c(C)c3c2=O)cc1 2.84%, CCCc1cc(N2CCN(c3cc(Cl)ccc3C)CC2)n2cnnc2n1 -26.3%, CCCN1C(=O)C(Cc2nc3ccccc3c(=O)n2CC)c2ccccc21 (configuration not stated) -5.74%, Cc1ccc(NC(=O)CCn2cccn2)cc1Cl -20.7%, CCOc1ccc(CCNC(=O)CN2C(=O)COc3ccc(S(=O)(=O)N4CCC(C)CC4)cc32)cc1 -1.02%, Cc1ccc2oc(C(=O)Nc3c(C(=O)Nc4ccccc4)oc4ccccc34)cc(=O)c2c1 -10.5%, CCCOc1ccc(N2CC(C(=O)Nc3cccc(Cl)c3Cl)CC2=O)cc1 (configuration not stated) -35.1%
